Values joined by “and” are separate entries in the source; they are usually repeats but may differ in a detail not shown here. Identical values can stand only once. Screen size: about 110,000 compounds; about 230 (0.21%) showed an effect of 50% or more. The list shows a part of the results.
Each compound was assayed against DPAP1 (Plasmodium falciparum, UniProt Q8IIJ9) (assay: primary screen, percent inhibition; read by cleavage of a fluorogenic dipeptide substrate; higher = more effect of the substance).
DPAP1, sequence (Q8IIJ9 whole entry, looked up): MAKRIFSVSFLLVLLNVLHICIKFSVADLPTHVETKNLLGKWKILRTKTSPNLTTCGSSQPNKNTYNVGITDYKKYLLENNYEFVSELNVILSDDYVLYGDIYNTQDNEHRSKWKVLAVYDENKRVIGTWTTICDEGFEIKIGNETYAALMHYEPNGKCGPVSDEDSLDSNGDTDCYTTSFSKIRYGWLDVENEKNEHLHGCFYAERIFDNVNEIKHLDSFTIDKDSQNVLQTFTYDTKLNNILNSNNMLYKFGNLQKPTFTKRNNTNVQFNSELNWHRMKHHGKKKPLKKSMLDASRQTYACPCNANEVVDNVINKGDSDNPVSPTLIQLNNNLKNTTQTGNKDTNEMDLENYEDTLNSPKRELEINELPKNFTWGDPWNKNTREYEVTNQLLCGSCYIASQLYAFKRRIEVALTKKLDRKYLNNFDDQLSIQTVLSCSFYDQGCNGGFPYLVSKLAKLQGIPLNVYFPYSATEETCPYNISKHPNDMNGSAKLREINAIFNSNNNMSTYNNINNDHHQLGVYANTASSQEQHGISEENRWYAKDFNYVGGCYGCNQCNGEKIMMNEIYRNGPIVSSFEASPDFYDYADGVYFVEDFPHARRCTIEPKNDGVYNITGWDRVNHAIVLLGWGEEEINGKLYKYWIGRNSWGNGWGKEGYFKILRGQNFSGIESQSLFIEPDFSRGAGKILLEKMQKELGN
Parameters: species or system P. falciparum D10 trophozoite lysates; single well
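Note: 30 min substrate incubation versus DMSO and 10 µM JCP410 controls.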

In order of rising “% Inhibition @ 10 uM” value:
1. COC(=O)/C(=C1/Oc2c(C)cc(C)cc2S1)C(F)(F)F  -7.23%
2. O=C(NCc1ccc(F)cc1)C1CCC(CNS(=O)(=O)c2cccs2)CC1 (stereo not shown)  -6.57%
3. O=C(Cn1c(=O)oc2ccccc21)Nc1ccc(Br)cc1  -6.51%
4. O=C1CC(NCC2CCCCC2)C(=O)N1c1ccc(Cl)cc1 (stereo not shown)  -4.5%
5. Cc1ccc(-c2csc(/C(C#N)=C/c3cccc(F)c3)n2)c(C)c1  -4.21%
6. CN(C)C(C)(C)c1nnnn1C(/C=C\c1ccc(Cl)cc1Cl)C(C)(C)C (stereo not shown)  -4.16%
7. Cc1ccc2nc3c(cc(C#N)c(=O)n3Cc3ccccc3Cl)c(=O)n2c1  -4.07%
8. COc1cc(C)nc(-c2ccccc2O)n1  -3.77%
9. Cc1cc(C=C2C(=O)c3ccccc3C2=O)c(C)n1-c1ccc(S(N)(=O)=O)cc1  -3.14%
10. O=C1c2cccnc2C(=O)N1Cc1ccccc1  -2.88%
11. COc1ccc(CNC(=O)CSc2nc3ccc(C)cc3cc2C#N)cc1  -2.64%
12. CCC(Cc1ccccc1)NC(=O)CCn1cccc1 (stereo not shown)  -2.45%
13. CC(C)Cn1cc(NC(=O)NC(C)c2ccccc2)c2ccccc2c1=O (stereo not shown)  -2.15%
14. O=C1C(c2c[nH]c3ccccc23)CC(c2ccccc2)=NN1Cc1ccccc1 (stereo not shown)  -1.8%
15. COc1ccc(C2=NN(CC(=O)NCCCN3CCCC(C)C3)C(=O)CC2)cc1 (stereo not shown)  -1.79%
16. CC12CC3CC(N)(C1)CC(CO)(C3)C2 (stereo not shown)  -1.78%
17. COc1ccc(N2C(N)=C(C#N)C(c3cc(OC)c(OC)c(OC)c3)C3=C2CC(C)(C)CC3=O)cc1 (stereo not shown)  -1.64%
18. CCOc1cc(CNCCc2c[nH]c3ccccc23)cc(Cl)c1OCC(N)=O  -1.52%
19. COc1ccc(C2OC(=O)C(O)=C2C(=O)c2ccc(Cl)cc2)cc1 (stereo not shown)  -1.47%
20. O=C(c1ccco1)n1nc(-c2ccco2)nc1NCc1cccs1  -1.47%
21. CCN(CC)CCN(C)C1CCc2ccccc2C1 (stereo not shown)  -1.42%
22. Cc1nc2nc(NC(=O)C3CCCCC3)nn2c(O)c1Cc1ccccc1  -1.31%
23. COC(=O)c1sc2nc3c(cc2c1N)CN(C(C)C)CC3  -1.08%
24. O=c1c(I)c(O)cc(-c2ccccc2)n1-c1ccccc1  -1.06%
25. CCOC(=O)C1=C(CNCc2cccs2)NC(=O)NC1c1ccc(C)cc1 (stereo not shown)  -1.03%
26. Cc1nc(-c2cnoc2)c2cc(C)oc2n1  -0.637%
27. O=C(Cn1cccc1C(=O)c1ccccc1)NC1CCN(Cc2ccccc2)CC1  -0.522%
28. CCCCN1C(=O)c2ccc(C(=O)Nc3cc(OC)c(OC)cc3C(=O)O)cc2C1=O  -0.478%
29. Nc1c(C(=O)NCc2ccccc2)sc2nc3c(c(-c4ccco4)c12)CCC3  -0.458%
30. Cc1cc(C)c(C(=O)/C=C/c2ccccc2)c(O)n1  -0.294%
31. Cc1nn(-c2ccc(F)cc2)c(-n2cccc2)c1C(=O)NC1CCC(C)CC1 (stereo not shown)  -0.252%
32. CC1(C)Cc2c(ccc3ccccc23)C2=CC(=O)C(=O)N21  -0.13%
33. COc1ccc(OC)c(CCNC(=O)c2cc3ccccn3n2)c1  -0.0115%
34. OCC1CCCCN1Cc1cc(Br)cs1 (stereo not shown)  0.0035%
35. CCc1ccccc1-n1c(C)cc(/C=C2\C(=N)N3N=C(S(C)(=O)=O)SC3=NC2=O)c1C  0.208%
36. COc1cc(CCC(=O)Nc2nnc(C)s2)cc(OC)c1OC  0.238%
37. O=C(NCc1ccco1)c1ccc(S(=O)(=O)N2CCCCC2)cc1  0.361%
38. Cc1ccnc(NC(=O)c2ccc(Cl)c(Cl)c2)c1  0.408%
39. Cc1ccc2nc(C)cc(NCCO)c2c1  0.674%
40. COc1cccc(N/C=C/C(=O)c2ccc(OC)c(OC)c2)c1  0.851%
41. O=C(NC1CCCc2ccccc21)c1ccc(CNc2c(N3CCOCC3)c(=O)c2=O)cc1 (stereo not shown)  1.15%
42. CCCN(CCC)CCCNC(=O)c1cnn2c(C)c(Cc3ccccc3)c(C)nc12  1.16%
43. O=C(c1ccccc1)N1CCN(CC(O)COC2CCCCC2)CC1 (stereo not shown)  1.52%
44. CCC1CCCCN1CCCNC(=O)c1ccc(CSc2nc3ccncc3[nH]2)cc1 (stereo not shown)  1.8%
45. CCN(CC)c1ccc(NC(=O)COc2ccccc2OC)cc1  1.86%
46. O=C(Cn1ccc2ccccc2c1=O)NCCc1ccc(Cl)cc1  1.91%
47. CSC1=C(C#N)C(c2ccccc2Cl)C2=C(O)CCCC2=N1 (stereo not shown)  2.3%
48. C=C(C)CN(CC)Cc1cc(O)ccc1[N+](=O)[O-]  2.41%
49. CC(C)NC(=O)CSc1nc(-c2ccc(F)cc2)cc(C(F)(F)F)n1  2.46%
50. Cc1ccc(CSc2nc3ccncc3n2Cc2ccc(C(=O)NCC3CCCO3)cc2)cc1 (stereo not shown)  2.99%
51. CN1CCc2nc(S)c(C#N)c(/C=C/c3ccccc3)c2C1  3.39%
52. COc1cc(CNC2CCCCCC2)cc2c1OCO2  3.44%
53. Cc1nnc(NC(=O)CSc2nnc(Cc3cccn3C)n2-c2ccc(Cl)cc2)s1  3.75%
54. COCCCNC(=O)C1CC(=O)N(Cc2ccc(OC)cc2)C1 (stereo not shown)  3.79%
55. CCCC(=O)Nc1ccc2c(c1)ncn2C1CCCCC1  3.8%
56. CN(Cc1ccccc1)C(=O)C1CCCN(c2ncnc3c2sc2cccc(F)c23)C1 (stereo not shown)  4.22%
57. COc1ccc(/C=C2/SC(N3CCCCC3)=NC2=O)c(OC)c1  4.74%
58. O=C(NCCCN1CCOCC1)c1csc2c1CCCC2  5.09%
59. Cc1nn(Cc2ccccc2Cl)c(C)c1NC(=O)COc1ccc(F)cc1F  6.03%
60. O=C1C2C3C=CC(C2C(=O)N1c1ccc(F)cc1)C1C(=O)N(c2ccc(F)cc2)C(=O)C31 (stereo not shown)  6.65%
61. COc1ccccc1OCC(=O)N(Cc1ccc(C)o1)C1CCS(=O)(=O)C1 (stereo not shown)  8.19%
62. O=C(NC1CCCCC1)c1cnn2c1NC(c1ccccc1)CC2C(F)(F)F (stereo not shown)  8.36%
63. CC1C(C#N)=C(SCC(=O)c2ccc(Cl)cc2)N=C2CC(C)(C)CC(O)=C21 (stereo not shown)  45.5%

With CCn1nccc1C(=O)N1CCN(C(=O)c2ccco2)CC1 the “% Inhibition @ 10 uM” value was -4.76% and -4.12%.
